# Source: ChEMBL document CHEMBL4888484, “Replenishing the malaria drug discovery pipeline: Screening and hit evaluation of the MMV Hit Generation Library 1 (HGL1) against asexual blood stage Plasmodium falciparum ,using a nano luciferase reporter read-out” (2022)
# The whole screen tested about 150,000 compounds, of which about 540 (0.36%) showed an effect of 50% or more. The list shows a part of the results.
# Tested on: Plasmodium falciparum
# Test: Primary screen in NF54 nanoGlo assay, in single point, at 2uM, 72h; a lower Z score goes with more inhibition
# Format: functional, Erythrocyte
# Settings: timepoint 72 hour
Compound,% Inhibition,Z score
O=C(CCc1cc2n(n1)CCCN(c1ncnc3c1CCC3)C2)NCCO,-14%,1.27
Cc1cc(C)c(C)c(C(=O)N2CC=CC2)c1C,7%,-0.89
CC1CN(C(=O)c2ccc3c(c2)OCC(=O)N3)C(C)CO1 (stereo not given),3%,-0.5
O=C(c1ccc2nncn2c1)N1CC=C(c2ccc(Cl)cc2)CC1,0%,-0.04
Cc1ccc(-c2c([C@@H]3c4ccccc4C(=O)N3CCC(C)C)c3ccccc3n2C)cc1,29%,-3.27
CCn1c(CC2CCN(Cc3c(C)n[nH]c3C)CC2)nn(C)c1=O,5%,-0.86
CC1CN(c2snnc2C(N)=O)CC(C)O1 (stereo not given),34%,-3.86
Cc1ccccc1NC(=O)c1cc(Cl)cc(Cl)c1NC(=O)c1cccnc1,-3%,0.54
Cc1cccc2oc(N[C@H]3CCCNC3=O)nc12,-7%,0.89
C[C@H](NC(=O)N1CCOCC1)c1nc2c(s1)CCCC2,-8%,1.11
CC[C@H]1CN(C(=O)CCc2nc(-c3ccsc3)no2)CCO1,-2%,0.2
Cc1cc(CN(C)c2ncnc3c2CCN(S(C)(=O)=O)CC3)n[nH]1,0%,0.01
CN(C)[C@H]1CCC[C@@H]1Nc1ccc2cccc(Cl)c2n1,0%,-0.01
O=C(Nc1cnc2c(c1)CNC2=O)N[C@@H]1COC2(CCC2)C1,-3%,0.41
Cc1cccc(CN2CCN3CCN(C(=O)NCc4ccccc4)CC[C@H]3C2=O)c1,-11%,1.48
Cc1cnc(CCNC(=O)c2cccnc2)n1C(C)C,-9%,0.98
O=C(c1cc(-c2cccnc2)nc2ccccc12)N1CCN(Cc2ccncc2)CC1,-22%,1.98
Cc1noc2ncnc(N3CCC(C)(C)S(=O)(=O)CC3)c12,-9%,1.42
Cc1n[nH]cc1CNCCc1ccccn1,0%,0.03
O=C1CN(Cc2cc(CN3CCCC3)cs2)CCN1Cc1ccccc1F,2%,-0.3
CC(C)(CNC(=O)C[C@@H]1C(=O)Nc2c(F)cccc21)C1CCC1,8%,-0.99
CCOc1cc(C2N(c3ccc(C)cc3)CCN2c2ccc(C)cc2)ccc1OCc1ccc(F)cc1,-4%,0.57

Compound,% Inhibition,Z score
Cn1nccc1C(=O)N1CC[C@H](c2nc(-c3ccccc3)no2)C1,-11%,1.37
COc1cnccc1[C@H](C)NCc1nc2ccccc2s1,1%,-0.19
O=C(NC1CC1)[C@H]1CCCN(CC(=O)N2CCCCC2)C1,0%,0.03
O=C(Nc1nc2c(s1)CN(C(=O)c1cnn(-c3ccccc3)n1)CC2)[C@@H]1CCCO1,-21%,3.41
CCC(Oc1ccc2c(c1)C(c1ccccc1)N(C(=O)C1CCCC1)CC2)C(=O)NC1CC1 (stereo not given),-6%,0.75
O=C(O)C1CCC(C(=O)Nc2cccc3[nH]ccc23)CC1 (stereo not given),4%,-0.59
C[C@H](O)c1cccc(N2CCC(CC3CC3)(C(=O)O)CC2)n1,-1%,0.14
Cc1nnc(NC(=O)NCc2ccccc2CN2CCCCC2)s1,12%,-1.49
Cc1nc(-c2cccc(CNC(=O)CC[C@H]3CCCO3)c2)cs1,3%,-0.44
Cc1cc(C(=O)NC2CCN(C)C2c2ccc(F)c(F)c2)c(C)n1-c1nccs1 (stereo not given),-16%,1.66
Cc1nn(C)c(C)c1NC(=O)[C@@H]1CCCc2ccccc21,6%,-0.79
CCn1cncc1-c1nc2c(cnn2Cc2ccncc2)[nH]1,-20%,2.53
CCC(=O)N1CCCN(c2cc(=O)n(C(C)C)c(=O)n2C(C)C)CC1,-4%,0.59
COc1cccc(C(=O)N2CC(F)(F)C[C@H]2c2nc(C)no2)c1OC,-3%,0.56
O=C([C@H]1CCc2nncn2C1)N1CC(c2cccc(Cl)c2)C1,-8%,0.77
COCC(=O)N1CCC(Cc2n[nH]c(=O)n2-c2ccccc2F)CC1,-9%,1.63
Cc1cc(CC(C)C)nc(N2CC[C@H](NCCc3ncnn3C)C2)n1,-7%,1.41
Cn1nc(CNC(=O)C2CCCCC2)c2c1CCCC2,-7%,1.38
COc1ccccc1CC(C)(C)NC(=O)[C@@H]1CCCc2nn(C)cc21,-2%,0.27
Cc1n[nH]c([C@H]2CCN(Cc3cc(Cl)ccc3F)C[C@H]2N(C)C)n1,-2%,0.31
O=C(Cc1cc(F)c(F)cc1F)N1CCCC[C@H]1c1ncon1,-2%,0.22
CN(CCn1cccn1)C(=O)NCCc1ccccc1C(F)(F)F,-1%,0.16

Compound,% Inhibition,Z score
COC(=O)N1CCN(C(=O)C2CCCC2)CC1,-8%,1.1
COc1ccc(C(=O)N2C[C@@H]3C[C@H]2C[C@@H]3NC(=O)c2ccccc2)cc1F,39%,-4.44
O=C(Nc1n[nH]c2ccc(F)cc12)[C@H]1OCC[C@H]1Cn1cccn1,-2%,0.29
Cc1nn(C)cc1[C@H](C)NCc1c(C(=O)N2CCCCCCC2)nc2ccc(Cl)cn12,14%,-2.56
CC(C)c1nccc(NC[C@]2(CO)COCCN2C)n1,-7%,1.41
CCC1(Cn2cc(C(=O)N[C@@H]3CCC[C@@H]3n3ccnc3)nn2)COC1,-14%,2.18
COc1ccc(Cl)cc1S(N)(=O)=O,-3%,0.66
CCn1cc(C)c(C(=O)O)c1CC(=O)Nc1cccc(C)c1C,-14%,1.84
Cc1cccnc1C[C@H](C)n1cc(-c2c(C)n(C)n(-c3ccccc3)c2=O)nn1,-20%,1.86
Cc1noc(-c2ccc(OC(F)(F)F)cc2)c1C(=O)NCCc1ccc(N)cc1,-1%,0.2
Cc1ccc(-c2cc(-c3ccc(O)c(Cl)c3)c(C#N)c(N)n2)nc1,-3%,0.38
O=C(NS(=O)(=O)CC1CCCCC1)c1csc(Cl)c1,-10%,1.33
CCC(=O)N1CCC(Nc2ccc(F)cc2OC2CCCC2)CC1,2%,-0.28
O=C(c1cc(O)nc2ccccc12)N1CC[C@H](Oc2ncccc2Br)C1,-12%,2.33
CCN(CC)S(=O)(=O)c1cc(C(=O)NCc2ccncc2)n(C)c1,-8%,1.06
Cc1ncc(CNc2ccc(Oc3nc(C(C)(C)C)ns3)c(Cl)c2)o1,-11%,1.8
COCCc1noc(-c2cnc(OC)nc2C)n1,-4%,0.46
COc1ccc(Cl)cc1-n1cnc2cc(C(=O)N3CCCCC3)ccc2c1=O,-16%,2.85
CC(C)(C)OC(=O)NCc1ccccc1N,0%,0.04
Cc1nonc1CC(=O)N1CCC(c2nnc(Cn3cccn3)n2C)CC1,-7%,1.48
CCCn1cc(CN2CCS(=O)(=O)CC2)c(C)n1,-4%,0.75
C[C@@H](CCc1ccc(Br)cc1)NC(=O)CCn1cncn1,-6%,0.88

Compound,% Inhibition,Z score
Cc1nc(Cn2cccc2C(=O)Nc2ccc(Cl)cc2F)no1,-17%,2.52
CC(C)C(=O)N(Cc1ccc(F)cc1)Cc1ccc(OS(=O)(=O)c2cccc(C(F)(F)F)c2)cc1,-11%,0.97
COC1([C@H](C)NC(=O)Cc2cccc(OC(C)C)c2)CCOCC1,0%,-0.05
O=C(Nc1cccnc1O)c1nc(C2CC2)n(-c2ccccc2)n1,33%,-3.76
O=C(NCC1(O)CCOCC1)C(=O)Nc1ccccc1C(F)(F)F,3%,-0.36
CCCc1nnc(N2CC[C@@]3(CCCN(C4CCCCC4)C3=O)C2)s1,-6%,0.87
Cc1cc(C)n(-c2ccc(=O)n(CC3CN(c4cc(=O)n5ccccc5n4)C3)n2)n1,-20%,2.98
C=CCNC(=O)NCCOc1ccc(S(C)(=O)=O)cc1,-19%,1.72
COc1ccc(C(=O)NCc2cccnc2-n2ccnc2)cc1,6%,-0.7
O=C(c1ccc(Cl)cc1)N1CCCN(c2cc(Oc3ccc(F)c(Cl)c3)ncn2)CC1,-13%,1.25
Cc1noc(C)c1CN1CC[C@H](NC(=O)c2cccc(Cl)c2)[C@@H](O)C1,-6%,1.12
O=C1C2CC=CCC2C(=O)N1Cc1coc(-c2ccc(F)cc2)n1 (stereo not given),-11%,1.52
Cc1cccc(CN2CCC(N3CCC[C@H](C(=O)N4CCCC4)C3)CC2)c1,6%,-1.14
Cc1ccc(CC(=O)NCCc2nc3cccnc3n2C)cc1,10%,-1.15
COc1ccc(S(=O)(=O)Oc2cc(CN(CC3CC3)C(=O)Nc3ccccc3OC)ccc2OC)cc1,-1%,0.14
O=C1CC[C@@]2(CCCO2)CCN1Cc1cscn1,-1%,0.19
CC(C)(CC1CCOCC1)C(=O)N1CCCCC1,-12%,1.57
Cc1nc(NC(C2CCC2)C2CCC2)nc(N(C)C)n1,-3%,0.49
O=C(NCc1ccc[nH]1)C1CCCCC1,10%,-1.3
